# Measurements as given in the supplement of paper PMC7125110.
# ± gives the standard error. Variants at the background level are over-represented here.
# B1: glmS ribozyme (parent)
# chain: AUAAAAGCGCCAGAACUACAGAAAUGUAGUUGACGAGGAGGAGGUUUAUCGAAUUUUCGGCGGAUGCCUCCAAA
# Variants of: B1
# Test: self-cleavage kobs at 10000 uM GlcN6P; higher = faster cleavage; RNA array
# Details: with glucosamine-6-phosphate
# How it was run: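 Barcoded ribozyme variants on sequenced MiSeq chips were transcribed in situ by E. coli RNA polymerase and followed at 37 °C through a hybridised Cy3 probe. Glucosamine-6-phosphate at 40 μM to 10 mM in HEPES/KCl/Mg(OAc)2 buffer was flowed in, and tiles were imaged over ~14 h. Signals were normalised to baseline and to non-cleaving reference variants, and per-tile medians were fit to one- or two-exponential decays to give kobs. Weighted Michaelis–Menten fits across concentrations gave kcat and KM.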
row,Variant,self-cleavage kobs at 10000 uM GlcN6P [s⁻¹]
1,C8G G40U C67U U69G,< 1e-05
2,C8U C11U U47G,< 1e-05
3,G38A A42G U49A,< 1e-05
4,G32U A33C G37C,< 1e-05
5,A36U G38U,< 1e-05
6,G7U U55C C58A C67A,< 1e-05
7,A36G G38U G43C C71U,< 1e-05
8,C8G A42C G66A,< 1e-05
9,A15U C16A A39U,0.000273 ± 6.1e-05
10,G9U A33U G40A C58U,< 1e-05
11,C8A G9U G35U U49A C50U C71G,< 1e-05
12,C11U U56C C61U G63U,< 1e-05
13,G37U C58G G63U,< 1e-05
14,U30C G41A G43U,< 1e-05
15,C11G G29U A33G C61G C71U,< 1e-05
16,A33G G60C C70G,< 1e-05
17,C8G G32U G66U,< 1e-05
18,G13U G41C A52U,< 1e-05
19,A12C A15U U31C,6.96e-05 ± 1.7e-05
20,C10U A48U U56C C71G,< 1e-05
21,A14G G43U C67U C71G,< 1e-05
22,A12U A39G G63C,< 1e-05
23,C16U A53U G62U C71G,< 1e-05
24,G9U G37U U46C,< 1e-05

row,Variant,self-cleavage kobs at 10000 uM GlcN6P [s⁻¹]
1,C16A U31A C71G,4.01e-05 ± 1.1e-05
2,G35C A42G U45G,< 1e-05
3,C11A G37U C68U C71U,< 1e-05
4,C10G C11A G59C,< 1e-05
5,A36C A39U A64C C71U,< 1e-05
6,A15C G37C G38U A52U U56G,< 1e-05
7,A12U G32U A33U G38C,< 1e-05
8,C19A U31G A42C,< 1e-05
9,C8U C11U G32A G37U G43A U45C,< 1e-05
10,A36C G37C A52G,< 1e-05
11,G32U C34U U49A,< 1e-05
12,G13C A14G U69G,3.8e-05 ± 1.6e-05
13,A14C A39C C70G,< 1e-05
14,U30C G35U G43U G66U,< 1e-05
15,G29C U31C C34G A53C,< 1e-05
16,C8A C16G U65C,< 1e-05
17,G29C A33U G41A U47G,< 1e-05
18,C8A G44U C71A,< 1e-05
19,C16G G38A C67A C71U,< 1e-05
20,G38C A52C C61A,< 1e-05
21,C11G A12G G32C U57C,< 1e-05
22,G13A G37U A42U A48U,< 1e-05
23,U31C A48U A52C,< 1e-05
24,C34A G38U U47C U57A,< 1e-05

row,Variant,self-cleavage kobs at 10000 uM GlcN6P [s⁻¹]
1,A36C A48U G63A,< 1e-05
2,A15C G29U A33C G38U C70G,< 1e-05
3,C8U C34A A53C C71A,< 1e-05
4,U31C A42G G51A,< 1e-05
5,G32C A33U G37C U56A,< 1e-05
6,C10U G13A G40U,< 1e-05
7,G13A A15U A53G G60U,< 1e-05
8,A15G G51U C71U,< 1e-05
9,G13A C34U U45A,< 1e-05
10,A14U G40A U54A,0.000245 ± 8.4e-05
11,C10A,< 1e-05
12,G32A G37U G40A U46G C50U U57C,< 1e-05
13,C11G G43A G63U,< 1e-05
14,G35U A36U G44U C68G,< 1e-05
15,U31C G40C U54C U56A A64U,< 1e-05
16,U31A A36U U47G C70G,5.95e-05 ± 1.5e-05
17,G32C U46A C68U C71U,< 1e-05
18,A36C G51U G59A C71A,< 1e-05
19,C11G A12G G37A C68G,< 1e-05
20,A12C G60C C61A,< 1e-05
21,A15C G35A U46G,< 1e-05
22,A15C A36C C67G,< 1e-05
23,C8U U31C A52U,< 1e-05
24,A15G A36G C61U C67G,< 1e-05

row,Variant,self-cleavage kobs at 10000 uM GlcN6P [s⁻¹]
1,G32A U57C G62A C67G,< 1e-05
2,C34G G35U,< 1e-05
3,C10U G43A G62U,< 1e-05
4,C34G G40A G51A G63A C68A,< 1e-05
5,C11G A12G G38C,< 1e-05
6,U31G G41C G43A C50U G51U,< 1e-05
7,C11G G43A U57G,< 1e-05
8,C8U G35C A36G G37C A39G G40A G66U,< 1e-05
9,A15C A42G U47G A53G,0.000696 ± 9.1e-05
10,A12G G32U U49A,< 1e-05
11,G13C A42G U65C,< 1e-05
12,A12U G13U G29C,3.79e-05 ± 1.5e-05
13,G29A U30A U49G G51A A52U G62U C67U,< 1e-05
14,G13C U46C C61U,< 1e-05
15,A14C G40U U56G,0.00853 ± 0.0032
16,G9C A48C C50U U57A C71A,< 1e-05
17,A15C G40U C50G,< 1e-05
18,A15C G32C C34U A52G A53U C67U,< 1e-05
19,G9A G44U U57C,< 1e-05
20,C34G A64C C67A,< 1e-05
21,C19A C34G,< 1e-05
22,A15U G32C G62C C71G,< 1e-05
23,G37A U45A C61U C67U,< 1e-05
24,U31A A42U A64U,< 1e-05

row,Variant,self-cleavage kobs at 10000 uM GlcN6P [s⁻¹]
1,C16G G59A C71G,< 1e-05
2,G32C A36C G51C,< 1e-05
3,G29C G41C A48G G59U C68G,< 1e-05
4,G32C G38U A42C G43C A52C,< 1e-05
5,G29C C34U G38A C71U,< 1e-05
6,G9C G44U A64U,< 1e-05
7,G13U G38A U57C C58U C61G,< 1e-05
8,A15G G62C,< 1e-05
9,C8U U30G G51U,< 1e-05
10,U31C G32U G41C U54C,< 1e-05
11,A33C G38A C58A,< 1e-05
12,G32U G35U G44A C70A,< 1e-05
13,A36U A39C C71U,< 1e-05
14,C11U A15U G60U,< 1e-05
15,G13C C61U G62U C71U,< 1e-05
16,C11A G35C C67A,< 1e-05
17,U31A A39G G63C,< 1e-05
18,A36C A52U C58U G63A,< 1e-05
19,G9C C34U,< 1e-05
20,G35C C61U C70U,< 1e-05
21,U30A G41U A53G C58A G59U G62A G66A C70U,< 1e-05
22,A12C A52U C67G,0.000146 ± 3.5e-05
23,A12U C50G G62A C71U,8.18e-05 ± 2.2e-05
24,G9C U46A C58U,< 1e-05

row,Variant,self-cleavage kobs at 10000 uM GlcN6P [s⁻¹]
1,C8A G9A C10U A33G A36G A39U U47C C58A,< 1e-05
2,C10A U57C C61U,< 1e-05
3,C34U G43U U57G U65G,< 1e-05
4,C10U U30A G35U,< 1e-05
5,A36C G38C A64C,< 1e-05
6,C8U U30G G37A A52C G66C C67G,< 1e-05
7,A33C A39C G62U G66C C70A,< 1e-05
8,C34A G40C A42U,< 1e-05
9,C16U G38A A52G C71G,< 1e-05
10,C11U G38U U45A A48U C71G,< 1e-05
11,G38A G44C C58U,< 1e-05
12,C8G G9A G35A A36U,< 1e-05
13,U31A G59C C67A,< 1e-05
14,C8A U65G,< 1e-05
15,G29A G40A G41U A52G,< 1e-05
16,G9U A52C U69A,< 1e-05
17,A33U G41U C58G,< 1e-05
18,A33G A39G G44A G51A,< 1e-05
19,A14G C58U C71U,0.00012 ± 2.1e-05
20,C10U G35C U46G U55A U56C,< 1e-05
21,C16U A33G G41C U46G,< 1e-05
22,C16A U31C G60A C61U,< 1e-05
23,A14U A33C G43C A52U G60A C67G,< 1e-05
24,C34G A36C A52G,< 1e-05

row,Variant,self-cleavage kobs at 10000 uM GlcN6P [s⁻¹]
1,A12G A14C A39C G44U G51U,< 1e-05
2,G9C G35U G44U A53U C61U G66U,< 1e-05
3,G13U C16U A53U G62U,< 1e-05
4,A12U G32C G38C,< 1e-05
5,C16U A53U U65G,0.00246 ± 0.00058
6,U31C A53G G60C C70G,< 1e-05
7,G29A G43U C50G G62A,< 1e-05
8,C8U A36C G51U,< 1e-05
9,A36U G59U G60A G62A,< 1e-05
10,C10U A33G G35C U45G C68U,< 1e-05
11,G13U C50U G60U,< 1e-05
12,C8A C34A A64G,< 1e-05
13,C8G U45C G60C,< 1e-05
14,U31C C68A C70G C71G,< 1e-05
15,A15U U31C G38U G44A G51U C71U,< 1e-05
16,A12U C50A G51U C58G,< 1e-05
17,G13U A15U C34A G44A U47A A48G C50G A53G,< 1e-05
18,C8G A15G U45G,< 1e-05
19,U30C A36C G44U U47C,< 1e-05
20,C16U G40C A53C C71U,0.000561 ± 0.00013
21,G29A C58U C70U,5.99e-05 ± 1.7e-05
22,A14U A48C C61G,< 1e-05
23,A14C A36C G59A G66U,< 1e-05
